Sequences and labels used below:
B1: OR4K15 (parent)
chain: GUUAACGGUCAUAGGCCAUGGAAACUAGGAGCACCAUUUCGCUGCCAGUGAAGAAAUGAACAAAGAAAAUCUGGGCCAGGCAGGCAUCAAAAGAAAUAGUCUUGCGCUCAACCAGAAAGUCUGUAAUCAUUUUAAGGGUA

The source gives no read counts; variants with many changes may rest on few reads.

These results are taken from the RNAGym collection of RNA variant scans (doi:10.7554/elife.90254).

The variants in this data set derive from B1. Description: self-cleavage, relative activity (ratio to wild type); higher = more cleavage; in vitro, sequencing; the parent is a self-cleaving ribozyme.
Turning to GUUAACGGUCCCAGGCCGUGGAAACCAGGAGCGCCAUUUCGCUGCCAGUGGAGAAAUGAACAAAGAAAAUCUGGGCCAGGCAGGCUUCAAAAGAAAUAGUCUUGCGCUCAACCAGAAAGUCUGUAAUCAUUUUAAGGGUA, the self-cleavage was 0.75.

With GUUAACGGUCGUAGGCCAUGGUAACUAGGAGCACCAUUUCGCUGCCAGUGAAGAAAUGAACAAAGAAAAUCUGGGCCAGGCAGGCAUCUAAAGAAAUAGUCUUGCGCUCAACCAGAAAGUCUGUAAUCAUUUUAAGGGUA, the self-cleavage worked out at 1.08.

With GUUAACGGUCCUAGGCCAUGGAAACUAGGAGCACCAUUCCGCUGCCAGCGAAGAAAUGAACAAAGAAAAUCUGGGCCAGGCAGGCAUCAAAAGGAAUAGUCUUGCGCUCAACCAGGAAGUCUGUAAUCAUUUUAAGGGUA, the self-cleavage was found to be 0.28.

Take GUUAACGGUCGUAGGCCAUGGAGACUAGGAGCCCCAUUUCGCUGCCAGUGAAGAAAUGAACAAAGAAAAUCUGGGCCAGGCAGGCAUCAAAAGAAACAGUCUUGCGCUCAACCAGAAAGUCUGUAAUCAUUUUAAGGGUA: the self-cleavage is 0.29.

Consider GUUAACGGUCGUAGGCCGUGGAAACUAGGAGCACCAUUUCGCUGCCAGUGAAGAAAUGAACAAAGAAAACCUGGGCCAGGCAGGCCUCAAAAGAAAUAGUCUUGCGCUCAACCAGAAGGUCUGUAAUCAUUUUAAGGGUA, for which the self-cleavage is 0.1.

As for GUUAACGGUCGUAGGCCAUGGGAACUAGGAGCACCAUUUCGCUGCCAGUGAAGAAACGAACAAAGAAAAUCUGGGCCAGGCAGGCAUCAAAAGAAAUAGUCUUGCGCUCAACCAGAAAGUCUGUAAUCAUUUUAAGGGUA, the self-cleavage is 1.53.

As for GUUAACGGUCCUAGGCCAUGGAAACUAGGAGCACCAUUACGCUGCCAGUGUAGAAAUGAACAAGGAAAAUCAGGGCCAGGCAGGCAUCAAAAGAAAUAGUCUUGCGCUCAACCAGAAAGUCUGUAAUCGUUUUAAGGGUA, the self-cleavage came out at 0.15.

Take GUUAACGGUCCUAGGCCAUGGAAACUAGGAGCACCAUUUCGCUGCCGGUGAAGAAAUGAACAAAGAAAAUCAGGGCCAGGCAGGCAUCAAAAGAAAUAGUCUUGCGCUCAUCCAGAAAGUCUGUAAUCAUUUUAAGGGUA: the self-cleavage was 0.01.

For GUUAACGGUCCUAUGCCAUGGAAACUAGGAGCACCAUUUCGCUGCCAGUGAAGGAAUGAACAAAGAAAAUCUGGGCCAGGCAGGCAUCAAAAGAAAUAGUCUUGCGCUCAACCAGAAAGUCUGUAAUCAUUUUAAGGGUA, the self-cleavage was found to be 1.08.

For GUUAACGGUCCUAGGCCAUGGAAACCAGGAGCACCACUCCGCUGCCAGUGAAGAAAUGAACAAAGAAAAUCUGGGCCAGGCAGGCAUCAAAGGAGAUAGUCUUGCGCUCAACCAGAAAGUCUGUAAUCAUUUUAAGGGUA, the self-cleavage was found to be 1.94.

Turning to GUUAACGGUCGUAGGCCGUGGAAACUAGGAGCACCAUUUCGCUGCCAGUGAAGAGAUGAACAAAGAAAAUCUGGGCCAGGCAGGCAUCAAAAGAAAUAGUCUUGCGCUCAACCAGAAAGUCUGUAAUCAUUUUAAGGGUA, the self-cleavage amounted to 1.11.

On to GUUAACGGUCGUAGGCCAUGGAGACUAGGAGCACCAUUUCGCUGCCAGUGUAGAAAUGAACAAAGAAAAUCUGGGCCAGGCAGGCAUCAAAAGAAAUAGUCUUGCGCUCAACCAGAAAGUCUGUAAUCAUUUUAAGGGUA, for which the self-cleavage stood at 1.2.

For GUUAACGGUCCAAGGCCAUGGAAACUAGGAGCGCCAUUUCGCUGCCAGUGAAGAAAUGAACAAAGAAAGUCUGGGCCAGGCAGGCAUCGAAAGAAAUAGUCUUGCGCUCAACCAGAAAGUCUGUAAUCAUUUUAAGGGUA, the self-cleavage stood at 1.08.

Consider GUUAACGGUCGUGGGCCAUGGAAACUAGGAGCACCAUUUCGCUGCCAGUGAAGAGAUGAACAAAGAAAAUCUGGGCCAGGCAGGCAUCAAAAGAGACAGUCUUGCGCUCAACCAGAAAGUCUGUAAUCAUUUUAAGGGUA, for which the self-cleavage worked out at 0.67.

For GUUAACGGUCCUAGGCCAUGGAAACUAGGAGCACCAUUUCGCUGCCAGUGAAGAAAUGAACAAAGAAAAUCUGGGCCGGGCAGGCAUCAAAAGGAAUAGUCUUGCGCUCAACCAGAAAGUCUGUAAUCAUUUUAAGGGUA, the self-cleavage was 0.3.

As for GUUAACGGUCGUAGGCCAUGGAGACUAGGAGCACCAUUUCGCUGCCAGUGAAGAAAUGAACAAAGAGAAUCUGGGCCAGGCAGGCAUCAAAAGAAAUAGUCUUGCGCUCAACCAGAAAGUCUGCAAUCAUUUUAAGGGUA, the self-cleavage came out at 0.47.

On to GUUAACGGUCGUAGGCCUUGGAAACUAGGAGCACCAUUUCGCUGCCAGUGAAGAAAUGAACAAAGAAAAUCUGGGCCAGGCAGGCUUCAAAAGAAAUAGUCUUGCGCUCAACCAGAAAGUCUGUAAUCAUCUUAAGGGUA, for which the self-cleavage was found to be 1.34.

Regarding GUUAACGGUCCUAGGCCAUGGAAACUAGGAGCACCAUUUCGCUGCCAGUGAAGAAAUGAACAAAGAAAAUCUGGGCCAGGCAGGCAUCAAAAGAAACAGUCUUGCGCUCAACCAGAAAGUCCGUAAUCAUUUUAAGGGUA, the self-cleavage worked out at 0.09.

In the case of GUUAACGGUCGUAGGCCAUGGAGACUAGGAGCACCAUUUCGCUGCCAGUGAAGAAAUGAACAAAGAAAAUCUGGGCCAGGCAGGCAUCAAAAGAAGUAGUCUUGCGCUCAACCAGAAAGUCAGUAAUCAUUUUAAGGGUA, the self-cleavage came out at 0.

For the variant GUUAACGGUCGUGGGCCAUGGAAACUAGGAGCACCAUUUCGCCGCCAGUGAAGAAAUGAACAAAGAAAAUCUGGGCCAGGCAGGCAUCAAAAGAAAUAGUCUUGCGCUCAACCAGAAAGUCUGUAAUCAUUUUAAGGGUA, the self-cleavage stood at 1.02.

Take GUUAACGGUCCUAGGCCAUGGAAACUGGGGGCACCAUUUCGCUGCCAGUGAAGAAAUGAACAAAGAAAAUCUGGGCCAGGCAGGCAUCAAAAGAAGUAGUCUUGCGCACAACCAGAAAGUCUGUAAUCAUUUUAAGGGUA: the self-cleavage is 0.06.

On to GUUAACGGUCGUAGGCCAUGGUAACUAGGAGCACCAUUUCGCUGCCAGUGAAGAAAUGAACAAAGAAAAUCUGGGCCAGGCAGGCAUCAAAAGAAAUAGUCUUGCGCUCAGCCAGAAAGUCUGUAAUCAUUUUAAGGGUA, for which the self-cleavage is 0.09.

In the case of GUUAACGGUCGUAGGCCUUGGAAACUAGGAGCACCAUUUCGCUGCCAGUGAAGAAAUGAACAAAGAAAAUCUGGGCCAGGCAGGCAUCAAAAGAAUUAGUCUUGCGCUCAACCAGAAAGUCUGUAAUCACUUUAAGGGUA, the self-cleavage worked out at 0.36.

For GUUAACGGUCGUAGGCCAUGGAGACUAGGAGCACCGAUUCGCUGCCAGUGAAGAAAUGAACAAAGAAAAUCUGGGCCAGGCAGGCAUCAAAAGAAAUAGUCUUGCGCUCAACCAGAAAGUCUGUGAUCACUUUAAGGGUA, the self-cleavage turned out to be 0.34.

As to GUUAACGGUCCUAGGCCAUGGAAACUAGGAGCACCAUUUCGCUGCCAGUGAAGAAAUGAACAAAGAAAAUCUGGGCCAGGCGGGCAUCAAAAGAAAUAGUCUUGCGCUCAACCAGAAAGUCUGUAACCAUUUUAAGGGUA, the self-cleavage was found to be 0.03.

Consider GUUAACGGUCCUAGGCCAUGGAAACUAGAAGCACCAUUUCGCUGCCAGUGAAGAAAUGUACAAAGAAAGUCUGGGCCAGGCAGGCAUCAAAAGAAAUAGUCUUGCGCUCCACCAGAAAGUCUGUAAUCAUUUUAAGGGUA, for which the self-cleavage was found to be 0.23.

Consider GUUAACGGUCGUAGGCCAUGGGAACUAGGAGCACCAUUUCGCUGCCAGUGGAGAGAUGAGCAGAGAAAAUCUGGGCCAGGCAGGCAUCAAAAGGAAUAGUCUUGCGCUCAACCAGAAAGUCUGUAAUUAUUUUAAGGGUA, for which the self-cleavage came to 0.78.

In the case of GUUAACGGUCGUAGGCCAUGGAGACUAGGAGCACCAUUUCGCUGCCAGUGAAGAAAUGAACAAAGAAAAUCUGGGCCAGGCGGGCAUCAAAAGAAGUAGUCUUGCGCUCAACCAGAAAGUCUGUAAUCUUUUUAAGGGUA, the self-cleavage worked out at 0.46.

With GUUAACGGUCGUAGGCCAUGGAGACUAGGAGCACCAUUUCGCUGCCAGUGAAGAAAUGAGCAAAGAAAAUCUGGGCCAGGCAGGCAUCAAAAGAAAUAGUCUUGCGCUCAACCAGAAAGUCUGUAAUCAUUUUAAGGGUA, the self-cleavage was determined as 1.03.

GUUAACGGUCCUAGGCCAAGGAAACUAGGAGCACCAUUUCGCUGCCAGUGAAGAAAUGAACAAAGAAAAUCUGGGCCGGGCAGGCAUCAAAAGAAAUAGUCUUGCGCUCAACCAGAAAGUCUGUAAUCAUUUUAAGGGUA: the self-cleavage was 0.52.

Regarding GUUAACGGUCCUAGGCCAUGGAAACUAAGAGCGCCAUUUCGCUGCCAGUGAAGAAAUGAACAAAGAAAAUCUGGGCCAGGCAGGCAUCAAAAGAAAUAGUCUUGCGCUCAACCAGAAAGUCUGUAAUCAUUUUAAGGGUA, the self-cleavage worked out at 1.16.

On to GUUAACGGUCGUAGGCCGUGGAAACUAGGAGCACCAUUUCGCUGCCAGUGAAGAAAUGAACAAAGAAAAUCUGGGCCAGGCAGGUAUCAAAAGAAAUAGUCUCGCGCUCAACCAGAAAGUCUGUAAUCAUUUUAAGGGUA, for which the self-cleavage is 0.21.

GUUAACGGUCCUAGGCCAUGGAAACUAGGAGCACCAUUUCGCUGCCAGUGAAGAAAUGAACAAAGAAAAUCUGGGCCAGGCAGGCAUCAAAAGUAAUAGUCUUGCGCUCAACCAGAAAGUCUGUAAUCAUCUUAAGGGUA: the self-cleavage is 1.9.

GUUAACGGUCCUAGGCCAUGGAAACUAGGAGCACCAUUUCGCUGCCAGCGAAGAAAUGAACAAAGAAAAUCUGGGCCAGGCAGGCAUCAAAAGAAAAAGUCUUGCGCUCAACCAGAAAGUCUGUAAUCAUUUUAAGGGUA: the self-cleavage is 1.61.

As to GUUAACGGUCGUAGGCCAUGGGAACUAGGAGCACCAUUUCGCUGCCAGUGAAGAAAUGAACACAGAAAAUCUGGGCCAGGCAGGCAUCAAAAGAAAUAGUCUUGCGCUCAACCAGAAAGUCUGUAAUCAUUUUAAGGGUA, the self-cleavage came out at 0.79.

For the variant GUUAACGGUCGUAGGCCAUGGGAACUAGGAGCACCAUUCCGCUGCCAGUGAAGAAAUGAACAAAGAAAAUCUGGGCCAGGCAGGCAUCAAAAGAAAUAGUCUUGCGCUCAACCAGAAAGUCUGUAAUCAUUUUAAGGGUA, the self-cleavage stood at 0.65.

In the case of GUUAACGGUCCUAGGCCAUGGAAACUAGGAGCACCAUUUCGCUGCCAAUGAAGAAAUGAACAAAGAAAAUCUGGGCCAGGCAGGCAUCAAAAGAAAUAGUCUUGCGCUCAACUAGAAAGUCUGUAAUCAUUUUAAGGGUA, the self-cleavage was 0.08.

Turning to GUUAACGGUCGUGGGCCAUGGAAACUAGGAGCACCAUUUCGCUGCCAGUGAAGAAAUGAACAAAGGAAAUCUGGGCCAGGCAGACAUCAAAAGAAAUAGUCUUGCGCUCAACCAGAAAGUCUGUAAUCAGUUUAAGGGUA, the self-cleavage was 1.46.

Consider GUUAACGGUCGUAGGCCAUGGAGACUAGGAGCACCAUUUCGCUGCCAGUGGAGAAAUGAACAAAGAAAAUCUGGGCCAGGCAGGCAUCAAAAGAAAUAGUCUUGCGCACAACCAGAAAGUCUGUAGUCAUUUUAAGGGUA, for which the self-cleavage was found to be 0.01.

Turning to GUUAACGGUCCUAGGCCAAGGAAACUAGGAGCACCAUCUCGCCGCCAGUGAAGAGAUGAACAAAGAAAAUCUGGGCCAGGCAGGCAUCAAAAGAAAUAGUCUUGCGCUCAACCAGAAAGUCUGUAAUCAUUUUGAGGGUA, the self-cleavage is 0.88.

GUUAACGGUCCUAGGCCAUGGAAACUAGGAGCACCAUUUCGCUGCCAGUGAAGAAAUGAACAAAGAAAAUCUGGGCCAGGCAGGCAUCAAAAGAAAUAGUCUCGCGCUCAACCAGAAAGUCUGUAAUUGUUUUAAGGGUA: the self-cleavage was 0.68.
